Whole data set: some 33,000 sequences, median “E-score (-0.5 to 0.5)” near -0.036, cut for the highest 2% near 0.37. The list shows a part of the results.
target: T1, Yer064c (UniProt P40041); assay: PBM E-score (8-mer binding enrichment) (E-score (-0.5 to 0.5)); higher = stronger / more preferred TF binding; most listed sequences are background and not binding sites; settings: protein concentration: 200 nM; construct: GST-full length
T1 sequence: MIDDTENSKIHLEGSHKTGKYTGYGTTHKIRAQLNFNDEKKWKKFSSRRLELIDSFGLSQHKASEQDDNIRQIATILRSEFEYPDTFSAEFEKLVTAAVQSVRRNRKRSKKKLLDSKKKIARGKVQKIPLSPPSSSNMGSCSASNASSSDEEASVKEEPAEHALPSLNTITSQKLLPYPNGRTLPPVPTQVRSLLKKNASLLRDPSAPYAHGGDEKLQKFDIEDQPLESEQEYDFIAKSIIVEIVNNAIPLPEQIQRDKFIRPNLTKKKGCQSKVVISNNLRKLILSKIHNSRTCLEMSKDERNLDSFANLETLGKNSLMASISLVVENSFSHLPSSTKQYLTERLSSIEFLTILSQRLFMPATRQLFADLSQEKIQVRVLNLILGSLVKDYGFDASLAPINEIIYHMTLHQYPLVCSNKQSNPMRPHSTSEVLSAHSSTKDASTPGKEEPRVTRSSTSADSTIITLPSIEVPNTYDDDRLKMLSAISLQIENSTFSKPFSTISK
Description: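 Universal 'all 10-mer' protein binding microarrays (Agilent AMADID 015681) probed with GST-tagged S. cerevisiae TFs (full-length or DBD) made by in vitro transcription/translation (PURExpress), about 100-200 nM. Bound TF was detected with fluorescent anti-GST. Each ungapped 8-mer (which stands for itself and its reverse complement) is scored by the PBM enrichment score (E-score), a modified Wilcoxon-Mann-Whitney statistic from -0.5 to +0.5, computed with the Universal PBM Analysis Suite. Scale: above 0.35 generally sequence-specific binding.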

Row | Sequence | PBM E-score
1 | ATCAATCG | 0.193
2 | CGATGGTC | -0.0168
3 | CCTTGTAG | -0.14
4 | ATTCGGAG | -0.0919
5 | CATAATGA | 0.214
6 | GGGCCCGA | -0.142
7 | CTCTCAAG | 0.0339
8 | ATTGTGCA | 0.1
9 | GAAGTCAC | 0.433
10 | AGCTCTTC | -0.222
11 | TATTTACA | 0.0598
12 | CTCCCCCC | -0.162
13 | ATCGACTG | 0.0775
14 | CTTTTCGC | -0.0382
15 | TCAAAACA | 0.141
16 | CCTGCCAC | -0.0676
17 | TCCGACAA | -0.00562
18 | CGGGTGAG | 0.241
19 | TATAAGAA | -0.0094
20 | AATTTGTC | -0.0536
21 | ATGCTCTA | -0.117
22 | CTTATAAG | 0.0499
23 | GAATGAAA | 0.00846
24 | CGGTGTCA | -0.0881

Row | Sequence | PBM E-score
25 | ACTAGATG | 0.104
26 | AAAGCTCC | -0.0457
27 | AACACTCC | -0.16
28 | AACGGGTG | -0.163
29 | CCCCGGCG | -0.0864
30 | ACCCGCTG | 0.0478
31 | CTCCGACC | -0.105
32 | AGCTAAGC | -0.158
33 | CAACTCCG | -0.12
34 | AACGTAGA | -0.157
35 | CTCTTGCC | -0.0899
36 | ATCCGCAA | 0.0373
37 | AAACGGGC | -0.206
38 | TCACTCAA | 0.24
39 | AAGTATGC | -0.00132
40 | ATATTTCG | 0.043
41 | GCTTACCC | -0.176
42 | ATGCCGTC | -0.274
43 | GCTTAATA | -0.0966
44 | ATGGTCTG | -0.0695
45 | CATTCGAA | 0.0908
46 | ATTCGTTG | 0.0655
47 | GATGTAAC | -0.124
48 | GATGGGAC | -0.082

Row | Sequence | PBM E-score
49 | AAATTCCG | -0.167
50 | TGCCGGAA | -0.213
51 | GATCCACA | 0.103
52 | GCTGTTTA | 0.0015
53 | TCACACCA | 0.218
54 | ACACTATC | 0.0106
55 | GACGACTA | 0.415
56 | AGCCGGTC | -0.159
57 | CCTCTCCA | -0.0377
58 | CAGAATGC | 0.00391
59 | GCCCACGC | -0.348
60 | CGTCTTCA | -0.115
61 | ACGGGTGA | 0.0366
62 | ACGAGTCA | 0.48
63 | AAATGTAC | -0.0779
64 | CATAATTC | 0.0347
65 | AGTGATCC | 0.12
66 | TAAACTAA | 0.195
67 | CGAAGAAA | -0.131
68 | CCGGGAGA | -0.0645
69 | GTCTTAAC | 0.192
70 | CAATTTAC | -0.0386
71 | CCCCAGTA | -0.19
72 | ATAGGCTC | -0.167

Row | Sequence | PBM E-score
73 | CCAAGAGC | -0.229
74 | CCGAAACG | -0.169
75 | CGTAGTGC | -0.148
76 | GATATGCC | -0.329
77 | CGAGAACA | 0.0131
78 | CAGATAGA | 0.0714
79 | CCGAGCAA | -0.287
80 | CCGTGGTC | -0.172
81 | GGAAGCCA | -0.0486
82 | CCGCACCA | 0.017
83 | AGTATAGA | 0.128
84 | AAGACAAT | -0.0159
85 | CCTTCTAC | -0.317
86 | AATGTACG | -0.329
87 | ACAGTTCC | -0.0135
88 | CGCGGCCG | -0.137
89 | GTGCTTCA | -0.00796
90 | CTTCTTGC | -0.185
91 | ACGCCCCA | -0.159
92 | ACACTGGC | 0.172
93 | CGCCAGCC | -0.276
94 | GGGAAGCA | -0.383

From the supplement of paper PMC3334620
